About 14,000 (4.5%) of roughly 310,000 compounds showed an effect of 50% or more. The effect is printed as a negative number. Some of the results follow.
The molecules below were run against human ether-à-go-go-related gene (hERG) potassium channel (human, UniProt Q12809) (assay: primary screen, population patch clamp on CHO cells stably expressing hERG).
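Further: peak tail current of the secondary pulse compared with the same well before compound.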

human ether-à-go-go-related gene (hERG) potassium channel, sequence (Q12809 whole entry, looked up): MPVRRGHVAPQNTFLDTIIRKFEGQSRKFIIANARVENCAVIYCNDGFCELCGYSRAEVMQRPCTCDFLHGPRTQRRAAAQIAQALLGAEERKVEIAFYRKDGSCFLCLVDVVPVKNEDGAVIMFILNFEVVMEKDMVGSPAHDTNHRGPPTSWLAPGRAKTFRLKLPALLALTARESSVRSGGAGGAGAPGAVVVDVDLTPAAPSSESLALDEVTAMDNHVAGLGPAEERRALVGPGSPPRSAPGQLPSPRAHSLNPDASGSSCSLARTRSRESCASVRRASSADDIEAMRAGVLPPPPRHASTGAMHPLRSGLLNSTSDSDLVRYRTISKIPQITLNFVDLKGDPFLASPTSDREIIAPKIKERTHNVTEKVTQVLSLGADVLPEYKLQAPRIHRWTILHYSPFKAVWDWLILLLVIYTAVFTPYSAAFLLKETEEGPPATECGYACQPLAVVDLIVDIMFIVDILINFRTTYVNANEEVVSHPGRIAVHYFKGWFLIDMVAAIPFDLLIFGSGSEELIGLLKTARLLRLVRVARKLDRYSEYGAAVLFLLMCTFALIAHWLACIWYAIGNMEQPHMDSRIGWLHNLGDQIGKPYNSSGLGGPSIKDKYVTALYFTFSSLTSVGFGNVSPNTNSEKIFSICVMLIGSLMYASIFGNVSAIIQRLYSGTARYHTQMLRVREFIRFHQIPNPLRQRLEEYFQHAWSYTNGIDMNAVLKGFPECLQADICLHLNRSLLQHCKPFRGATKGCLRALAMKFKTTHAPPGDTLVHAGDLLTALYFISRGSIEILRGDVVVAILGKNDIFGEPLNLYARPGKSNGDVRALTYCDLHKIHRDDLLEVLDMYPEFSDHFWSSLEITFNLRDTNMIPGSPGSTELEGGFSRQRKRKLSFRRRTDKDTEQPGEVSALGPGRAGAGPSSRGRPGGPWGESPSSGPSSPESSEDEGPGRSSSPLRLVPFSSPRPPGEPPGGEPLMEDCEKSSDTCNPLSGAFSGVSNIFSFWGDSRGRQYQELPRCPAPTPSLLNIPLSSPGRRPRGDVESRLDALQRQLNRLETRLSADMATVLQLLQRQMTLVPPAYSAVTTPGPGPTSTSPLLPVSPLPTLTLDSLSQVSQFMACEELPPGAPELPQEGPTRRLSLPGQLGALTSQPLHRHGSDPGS

In order of rising “hERG current change (%, negative = inhibition) at 10uM” value:
1. O=C(COc1ccccc1)NNc1nc2c(F)cc(F)cc2s1  -62.6%
2. Clc1ccc(OCC#CCN2CCCCCC2)cc1.O=C(O)C(=O)O  -34.7%
3. O=C(Nc1cc([N+](=O)[O-])ccc1N1CCCC1)c1ccccc1  -33.3%
4. CC(=O)c1ccc(NC(=O)CN2CCC(C(=O)c3ccc4c(c3)OCCO4)CC2)cc1  -29.5%
5. Cc1ccc(/C=N/NC(=O)c2nnn(-c3nonc3N)c2CSc2ccc(Cl)cc2)o1  -26.9%
6. OC1CCN(c2c3c(nc4cc(-c5cccc(F)c5)nn24)CCCC3)CC1  -23.1%
7. OCCNc1nc(Nc2ccccc2OC(F)(F)F)nc(N2CCCC2)n1  -21.9%
8. CCc1ccc(OCc2nnc(SCC(=O)NCC3CCCO3)n2C)cc1 (stereo not shown)  -21.7%
9. COc1ccc(S(=O)(=O)Nc2cc(C(=O)NC(C)C)ccc2N2CCOCC2)cc1  -20.3%
10. O=C(Nc1ccc2c(c1)CCC2)c1ccc(F)c(S(=O)(=O)N2CCOCC2)c1  -18.4%
11. Cc1ccc(-c2nnn(CC(=O)N(CC(=O)NCc3ccccc3)c3cccc(C)c3C)n2)o1  -17.8%
12. O=c1cc(-c2ccccc2)nc2n1Cc1ccccc1-2  -17.5%
13. COc1ccc(OCCOC(=O)c2cccc(-n3cnnn3)c2)cc1  -15.7%
14. Cc1ccccc1NC(=O)C1CCN(C2=NS(=O)(=O)c3ccccc32)CC1  -15.2%
15. CCOc1ccc(CCNC(=O)CCS(=O)(=O)c2ccc(OC)cc2)cc1OCC  -14%
16. CCSCc1nnc(SCC(=O)c2ccc(OC)cc2)n1C  -11%
17. C=CCOc1ccc(/C=C/C(=O)OCC(=O)Nc2c(C)n(C)n(-c3ccccc3)c2=O)cc1  -10.5%
18. CNS(=O)(=O)c1cc(N(C)S(=O)(=O)c2ccc(C)cc2)c(C)cc1C  -10.2%
19. Cc1cc(C)n2nc(NCc3ccccc3)nc2n1  -9.34%
20. CCOc1ccc(NC(=S)Nc2ccc3nsnc3c2)cc1  -8.21%
21. O=C(CCc1ccc(O)cc1)NNC(=S)NCCc1ccccc1  -8.2%
22. CCN(CC)CC(=O)NCc1cc(-c2ccc(OC)cc2)no1  -6.97%
23. CCOc1ccc(C(=O)NCC(=O)OCCCC(=O)c2ccc(F)cc2)cc1OCC  -5.38%
24. CCOc1ccccc1N(CC(=O)OC)S(=O)(=O)c1ccccc1  -3.82%
25. O=C(CCCCCC(=O)N(CCO)CCO)N(CCO)CCO  -3.63%
26. CC(CC1CC(C)(C)OC1=O)C(=O)Nc1nncs1 (stereo not shown)  -2.26%
27. CCOC(=O)C1=C(C)NC2=C(C(=O)C(C(=O)OCC)C(c3cccc(OC)c3)C2)C1c1ccccn1 (stereo not shown)  -1.33%
28. O=C(COC(=O)c1ncc(Cl)c(Cl)c1Cl)NNC(=O)c1ccccc1  -1.26%
29. CCOC(=O)N/N=C(\C)c1ccc(OC(F)F)cc1OC(F)F  -1.2%
30. Cc1cc2c(cc(C(=O)OCC(=O)NCc3ccco3)n2C)s1  1.12%
31. COc1ccc(C2(O)CN(c3ccccc3)C3=[N+]2CCS3)cc1OC.[Br-] (stereo not shown)  1.7%
32. CC(C)c1ccc(/C=C2\C(=O)N(CCN3CCOCC3)C(=S)N2C)cc1  2.18%
33. O=C(NCC(=O)N(CCN1CCOCC1)C(C(=O)NC1CCCC1)c1ccccc1)c1cccs1 (stereo not shown)  3.17%
34. COCc1nc2c([nH]1)c(=O)n(C)c(=O)n2CC(C)C  3.74%
35. Cc1cc(O)ccc1NC(=O)c1ccccc1  4.37%
36. CCOC(=O)C1CCCCN1Cc1cccc(OCc2ccccc2)c1.O=C(O)C(=O)O (stereo not shown)  5.67%
37. CCN(CC)S(=O)(=O)c1ccc(Cl)c(NC(=O)COc2ccccc2[N+](=O)[O-])c1  7%
38. CCn1c(SCc2ccccc2)nnc1-c1cccnc1  9.29%
39. COc1cc(C2Oc3cc(C4Oc5cc(O)cc(O)c5C(=O)C4O)ccc3OC2CO)ccc1O (stereo not shown)  9.99%
40. Nc1ccc(S(=O)(=O)Nc2ccccn2)cc1  10.1%
41. CCOc1ccc(-n2c(SCC(=O)Nc3ccc(OC)cc3)nc3sc4c(c3c2=O)CCN(C)C4)cc1  10.2%
42. CC(NC(=O)CN1C(=O)c2ccccc2C1=O)c1ccccc1 (stereo not shown)  10.2%
43. COc1ccccc1NC(=O)CCS(=O)(=O)c1ccc2c(c1)oc(=O)n2C  10.5%
44. O=C(CSC1=NCCS1)N1CCCCCC1  10.5%
45. Cc1c(C(=O)NCCN2CCOCC2)oc2ccccc12  11.6%
46. CC(C)c1nnc(SCC(=O)NC2CCCCC2)n1C  12.2%
47. CCN(CC)C(=O)c1sc(N)c(C#N)c1C  12.6%
48. COc1ccc(C)cc1N(C(=O)COc1ccccc1)c1nc2ccccc2s1  13.2%
49. Cc1ccc(/C=N/Nc2ccc(F)cc2F)s1  14.2%
50. O=C(COC(=O)C1CC2C=CC1C2)NCCc1ccccc1 (stereo not shown)  14.5%
51. Cc1ccc(Nc2nnns2)cc1C  15%
52. CCn1nc(C)c(CCC(=O)O)c1C  15%
53. N/C(=N\OC(=O)CCCOc1ccc(Cl)cc1Cl)c1ccccn1  16.6%
54. CCCn1c(SCC(=O)NC(C)c2ccccc2)n[nH]c1=O (stereo not shown)  17.3%
55. COc1ccc(Cc2nnc(SC)[nH]c2=O)cc1  19.7%
56. COc1cc(CCC(=O)NNC(=O)c2cccc(Cl)c2)cc(OC)c1OC  22%
57. O=C(O)c1ccc(N=Nc2c(O)[nH]c3cc(Cl)ccc23)cc1  22.1%
58. CCc1ccccc1NC(=O)CSc1nc2c(c(-c3ccco3)c1C#N)CCCC2  26.5%

Source: article PMC4336329 (PLoS ONE, 2015)
